# Source: the supplement of paper PMC4967469
# By IC50 is meant the dose at which the fit gives 50% viability; fits outside the tested doses are given as limits. AUC, from the same fit, is the share of area under the viability curve across the 256-fold dose range; the more sensitive the line, the further below 1. For some of these results: An inferred top dose comes from the curve model; the source does not state it.
# Key:
# Experiment in all cases: Viability of human cancer cell lines after 72 h of drug (GDSC screen)
# [1] = compound: CC(C)N(CCCNC(=O)Nc1ccc(C(C)(C)C)cc1)C[C@H]1O[C@@H](n2cc(Br)c3c(N)ncnc32)[C@H](O)[C@@H]1O [SGC0946]; conditions: top dose 0.5 µM; top dose inferred
# Protocol: (§1)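 Human cancer cell lines in 384-well plates, medium with 10% serum, drug for 72 h over a 256-fold dose range (nine 2-fold or five 4-fold steps up to the top dose). Adherent lines were fixed and stained with the nucleic acid dye Syto60, suspension lines read with resazurin; signal relative to control wells, capped at 0 and 100%. One two-parameter sigmoid per drug and line, fitted in a mixed model over all curves with the slope shared within a line.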
# [2] = compound: CCC/C=C/C=C/C(=O)O[C@H]1/C(=C/C(=O)OC)C[C@H]2C[C@H]([C@@H](C)O)OC(=O)C[C@H](O)C[C@@H]3C[C@H](OC(C)=O)C(C)(C)[C@](O)(C[C@@H]4C/C(=C/C(=O)OC)C[C@H](/C=C/C(C)(C)[C@]1(O)O2)O4)O3 [Bryostatin 1]; conditions: top dose 0.008 µM; top dose inferred
# Protocol: as §1
# [3] = compound: COc1ccc(COc2ccc(Cc3cnc(N)nc3N)cc2OC)cc1 [GW-2580]; conditions: top dose 20 µM; top dose inferred
# Protocol: as §1
# [4] = compound: Cc1cc(Nc2cc(N3CCN(C)CC3)nc(Sc3ccc(NC(=O)C4CC4)cc3)n2)n[nH]1 [VX-680]; conditions: top dose 2 µM
# Protocol: as §1
# [5] = compound: Nc1cccc2c1CN(C1CCC(=O)NC1=O)C2=O [Lenalidomide]; conditions: top dose 5 µM; top dose inferred
# Protocol: as §1
Cell Line,AUC [1],IC50 [1] [µM],AUC [2],IC50 [2] [µM],AUC [3],IC50 [3] [µM],AUC [4],IC50 [4] [µM],AUC [5],IC50 [5] [µM]
"NB10 (neuroblastoma, adherent)",0.971,> 0.5,0.988,> 0.008,0.966,> 20,0.986,> 2,0.984,> 5
"NB13 (neuroblastoma, adherent)",0.988,> 0.5,0.984,> 0.008,0.973,> 20,0.616,0.25,0.984,> 5
"NCI-H82 (small cell lung carcinoma, suspension)",0.986,> 0.5,0.989,> 0.008,0.989,> 20,0.854,1.45,0.978,> 5
"NCI-H211 (small cell lung carcinoma, adherent)",0.979,> 0.5,0.986,> 0.008,0.963,> 20,0.601,0.235,0.988,> 5
"NCI-H226 (lung squamous cell carcinoma, adherent)",0.986,> 0.5,0.983,> 0.008,0.981,> 20,0.982,> 2,0.985,> 5
"NCI-H345 (small cell lung carcinoma, suspension)",0.989,> 0.5,0.968,> 0.008,0.902,> 20,0.956,> 2,0.989,> 5
"NCI-H446 (small cell lung carcinoma, semi-adherent)",0.984,> 0.5,0.982,> 0.008,0.977,> 20,0.887,> 2,0.985,> 5
"NCI-H524 (small cell lung carcinoma, suspension)",0.99,> 0.5,0.991,> 0.008,0.986,> 20,0.559,0.178,0.989,> 5
"NCI-H716 (large intestine, suspension)",0.978,> 0.5,0.981,> 0.008,0.982,> 20,0.982,> 2,0.861,> 5
"NCI-H847 (small cell lung carcinoma, adherent)",0.98,> 0.5,0.992,> 0.008,0.987,> 20,0.425,0.0811,0.993,> 5
"NCI-H1155 (large cell lung carcinoma, suspension)",0.993,> 0.5,0.993,> 0.008,0.991,> 20,0.976,> 2,0.993,> 5
"NCI-H1395 (lung adenocarcinoma, adherent)",0.98,> 0.5,0.982,> 0.008,0.936,> 20,0.977,> 2,0.98,> 5
"NCI-H1436 (small cell lung carcinoma, suspension)",0.942,> 0.5,0.982,> 0.008,0.945,> 20,0.927,> 2,0.982,> 5
"NCI-H1694 (small cell lung carcinoma, suspension)",0.987,> 0.5,0.988,> 0.008,0.891,> 20,0.976,> 2,0.983,> 5
"NCI-H1770 (non-small cell lung carcinoma, suspension)",0.992,> 0.5,0.984,> 0.008,0.99,> 20,0.959,> 2,0.991,> 5
"NCI-H1836 (small cell lung carcinoma, suspension)",0.986,> 0.5,0.988,> 0.008,0.843,16.4,0.958,> 2,0.988,> 5
"NCI-H1838 (lung adenocarcinoma, adherent)",0.985,> 0.5,0.987,> 0.008,0.987,> 20,0.986,> 2,0.978,> 5
"NCI-H1869 (lung squamous cell carcinoma, adherent)",0.983,> 0.5,0.985,> 0.008,0.976,> 20,0.976,> 2,0.982,> 5
"NCI-H1876 (small cell lung carcinoma, adherent)",0.982,> 0.5,0.982,> 0.008,0.977,> 20,0.78,0.836,0.987,> 5
